# Reference: PubChem BioAssay AID485294 (National Center for Advancing Translational Sciences (NCATS), 2010)
# Among all 370,000 compounds or so, about 150 (0.041%) were called active. Inconclusive means that the source gave no clear call. Such entries were picked first, then a sample of the others. Calls come from the whole dose curve; as a rule, active = well fitted inhibition curve with a large enough effect; inconclusive = small, poorly fitted or top-dose-only effect; inactive = flat fitted curve, though single readings scatter. Potencies of inconclusive entries are left out as doubtful fits.
# Biological target: Beta-lactamase (Escherichia coli (strain K12)) (UniProt P00811)
# Assay: qHTS Inhibitors of AmpC Beta-Lactamase (assay with detergent); note: nearly all actives have a fitted effect of over 25% in size
# Details: AmpC hydrolysis of nitrocefin, absorbance 480 nm, 0.01% Triton; series mostly up to 114 µM
# Outline: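 20 mM phosphate pH 7.0 + 0.01% (detergent screen) or 0.0001% Triton X-100; 5.3 nM AmpC reagent; cpd preinc 15 min RT; nitrocefin (800 uM stock) to start; A480 q20 s × 4 min; Activity was normalised to no-enzyme and no-compound control wells.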
# Potency is the fitted concentration of half-maximal effect; tags give direction and shape of the fitted curve.
# UniProt P00811, sequence (P00811 whole entry, looked up): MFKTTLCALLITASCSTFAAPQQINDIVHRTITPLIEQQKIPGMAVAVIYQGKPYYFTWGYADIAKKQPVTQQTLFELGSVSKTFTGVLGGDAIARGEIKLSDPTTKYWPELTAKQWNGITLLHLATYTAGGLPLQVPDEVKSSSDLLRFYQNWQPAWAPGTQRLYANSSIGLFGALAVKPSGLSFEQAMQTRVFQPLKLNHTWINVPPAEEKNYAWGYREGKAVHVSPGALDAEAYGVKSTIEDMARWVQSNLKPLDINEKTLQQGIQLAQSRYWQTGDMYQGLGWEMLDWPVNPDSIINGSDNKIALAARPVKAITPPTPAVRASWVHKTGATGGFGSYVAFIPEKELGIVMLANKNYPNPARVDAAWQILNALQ
row,SMILES,Potency
1,CCc1nc(SCC(=O)Nc2cc(C)on2)c2c(C)c(C)sc2n1,"inconclusive [inhibitor, partial curve, poor fit]"
2,CCOC(=O)N1CCN(C(=O)CN2C(=O)CC(C)(C)S(=O)(=O)c3ccccc32)CC1,inactive
3,Cc1noc(NS(=O)(=O)c2ccc(NC(=O)c3ccc(Cl)c(S(=O)(=O)N(C)c4ccccc4)c3)cc2)c1C,"inconclusive [inhibitor, single point]"
4,O=c1c2ccccc2ncn1CCCCOc1ccccc1F,"inconclusive [inhibitor, full curve, poor fit]"
5,Cc1n[nH]c(C)c1CCC(=O)N/N=C/C=C/c1ccccc1,"inconclusive [inhibitor, full curve, poor fit]"
6,CS(=O)(=O)c1ccccc1COC(=O)Nc1ccc(Cl)cc1,inactive
7,C=CCSc1nc2sc(C)c(C)c2c(=O)n1N,"inconclusive [inhibitor, partial curve]"
8,O=C(CNc1ccccc1N1CCCC1=O)Nc1cc(C(F)(F)F)ccc1-n1cncn1,"inconclusive [inhibitor, full curve, poor fit]"
9,Cc1noc(C)c1C(=O)OCC(=O)NC1CCCCC1C (configuration not stated),"inconclusive [inhibitor, full curve, poor fit]"
10,CCOC(=O)c1ccc(Nc2nc(C)cc(C)n2)cc1,inactive
11,COc1ccc(Cl)cc1N(CC(=O)Nc1ccccc1C(=O)NCc1ccco1)S(C)(=O)=O,"inconclusive [inhibitor, full curve, poor fit]"
12,CC(=O)N1N=C(c2cccc([N+](=O)[O-])c2)OC1c1ccc(Cl)cc1Cl (configuration not stated),"inconclusive [inhibitor, partial curve]"
13,CC(Sc1nc(-c2ccccc2)c(C#N)c(=O)[nH]1)C(=O)Nc1ccc(F)cc1 (configuration not stated),inactive
14,CCCCOc1ccc(S(=O)(=O)Nc2cccc(-c3ccc(N4CCOCC4)nn3)c2)cc1,"inconclusive [inhibitor, full curve, poor fit]"
15,O=C(Nc1ccccc1)c1[nH]ncc1[N+](=O)[O-],inactive
16,Cc1ccc(CN(C)C(=O)c2ccc(S(=O)(=O)N(C)c3ccccc3)cc2)o1,inactive
17,CCCCCCOc1ccc(N2C(=O)CC(N(CCc3ccc(S(N)(=O)=O)cc3)C(C)=O)C2=O)cc1 (configuration not stated),inactive
18,CC(C)(C)OC(=O)NC(CNCc1ccccc1)Cc1ccccc1 (configuration not stated),"inconclusive [inhibitor, partial curve]"
19,O=C(Nc1ccc(Cl)c(C(F)(F)F)c1)C(=O)N1CCCCC1,"inconclusive [inhibitor, partial curve, poor fit]"
20,O=C(NCCCn1ccnc1)c1cc(-c2ccccc2)on1,"inconclusive [inhibitor, single point]"
21,COc1ccc(/C(O)=C2\C(=O)C(=O)N(CCN3CCOCC3)C2c2ccccc2OC)cc1 (configuration not stated),inactive

row,SMILES,Potency
1,CN(C)c1nc2n(c(=O)n1)CCO2,"inconclusive [inhibitor, full curve, poor fit]"
2,O=C(NC(=S)Nc1ccc(CN2CCOCC2)cc1)c1cc2ccccc2o1,"inconclusive [inhibitor, full curve, poor fit]"
3,O=C(CSC1=NS(=O)(=O)c2cc(Cl)ccc2N1)Nc1ccccc1F,"inconclusive [inhibitor, partial curve, poor fit]"
4,Cc1ccnc(NS(=O)(=O)c2ccc(NS(=O)(=O)Cc3ccccc3)cc2)n1,"inconclusive [inhibitor, full curve]"
5,O=C(C1CC(=O)N(c2ccc(Cl)cc2)C1)N1CCOCC1 (configuration not stated),inactive
6,Cc1n[nH]c(C)c1N1C(=O)c2cccc3c(N4CCCCCC4)ccc(c23)C1=O,"inconclusive [inhibitor, full curve, poor fit]"
7,Cc1cccc(C)c1-n1c(C)cc(/C=N/NC(=O)c2ccncc2)c1C,inactive
8,Cc1cccc(N(Cc2ccccc2)C(=O)c2cccc(S(=O)(=O)N3CC(C)OC(C)C3)c2)c1 (configuration not stated),"inconclusive [inhibitor, full curve]"
9,c1ccc(Nc2scc(-c3ccccc3)[n+]2Cc2ccco2)cc1,inactive
10,O=C(c1ccccc1F)N(Cc1ccc(F)cc1)C1CCS(=O)(=O)C1 (configuration not stated),"inconclusive [inhibitor, full curve, poor fit]"
11,CCOc1ccc(N2CC(c3nc4ccccc4n3CCCOc3ccc(OC)cc3)CC2=O)cc1 (configuration not stated),inactive
12,CCOC(=O)c1c(NC(NC(=O)C(C)C)C(Cl)(Cl)Cl)sc2c1CCC2 (configuration not stated),"inconclusive [inhibitor, single point]"
13,CCCN(CCC)Cc1c(C(=O)N/N=C/c2c[nH]c3ccccc23)nnn1-c1nonc1N,"inconclusive [inhibitor, full curve, poor fit]"
14,C=CCn1c(Cc2c(C)[nH]c3ccccc23)nnc1SCC(=O)NCc1ccc(F)cc1,inactive
15,CC(C)(C)c1cc(C(=O)N2CCc3ccccc32)ccn1,"inconclusive [inhibitor, full curve]"
16,CCCCCCOC(=O)C(C#N)c1nc2ccccc2nc1N1CCCCC1 (configuration not stated),"inconclusive [inhibitor, partial curve, poor fit]"
17,COc1ccc(N2CCN(C(=O)Cn3nnc(-c4ccc(OC)c(OC)c4)n3)CC2)cc1,"inconclusive [inhibitor, full curve]"
18,CC(C)c1ccc(N=c2c([N+](=O)[O-])nn(-c3ccc4c(c3)OCCO4)n2O)cc1,"inconclusive [inhibitor, partial curve, poor fit]"
19,O=C(Nc1ccc2c(c1)OCO2)c1ccc(Cl)nc1,"inconclusive [inhibitor, partial curve]"
20,CN(Cc1ccco1)C(=O)c1c[nH]c2ccc(S(=O)(=O)Nc3ccc4c(c3)OCCO4)cc2c1=O,"inconclusive [inhibitor, full curve, poor fit]"
21,Cc1ccc(-c2[nH]c(=O)n3ccncc23)s1,"inconclusive [inhibitor, full curve]"
